# Test results published in PubChem BioAssay (NCATS).
# Inconclusive means that the source gave no clear call. Such entries were picked first, then a sample of the others. For some assays here: Potencies beside an inconclusive call are fits to weak or partial responses and may not hold up. Calls of active or inactive are those of the source. Unless noted, calls follow the shape of the dose curve; as a rule, active = well fitted curve in the direction sought with a large enough effect; inconclusive = small, poorly fitted or top-dose-only effect, or another doubt; inactive = no such curve, though single readings can be large; an effect the other way counts as inactive or inconclusive.
# How the values were obtained:
# [1] = qHTS of pediatric cancer cell lines to identify multiple opportunities for drug repurposing: Primary screen for DAOY cells (AID 1347090); conditions: DAOY medulloblastoma viability, CellTiter-Glo luminescence, 48 h; activity change, negative = cytotoxic: at 46 µM (top of the series);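 also: plate controls were DMSO for no effect and bortezomib for full effect; nearly all actives have a fitted effect of over 55% in size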
# Summary of the method: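 Eight- or eleven-point concentration series, 48 h treatment at 37 degrees C in growth media; readout CellTiter-Glo luminescence. Potency and efficacy were taken from the concentration-response curves.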
# [2] = qHTS of pediatric cancer cell lines to identify multiple opportunities for drug repurposing: Primary screen for SK-N-SH cells (AID 1347098); also: potency is read from the fitted curve at half-maximal effect; nearly all actives have a fitted effect of over 65% in size
# Summary of the method: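 Cells (500-1,000/well) rested 5 h, then received compounds for 48 h; metabolically active cells were measured by CellTiter-Glo luminescence. Final concentrations spanned up to 46 µM (MIPE, 11-point) or 0.59 nM-46 µM (NPC, 8-point) in primary screens, 11-point in follow-ups.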
# [3] = qHTS of pediatric cancer cell lines to identify multiple opportunities for drug repurposing: Primary screen for Rh41 cells (AID 1347108);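 also: luminescence drop marks cytotoxic hits; nearly all actives have a fitted effect of over 70% in size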
# Summary of the method: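 ATP-based luminescence (CellTiter-Glo) quantifies viability after a 48-hour exposure. Compounds are dosed across 8 or 11 final concentrations; DMSO and 2.3 µM bortezomib serve as controls.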
# [4] = Primary qHTS for small molecule stabilizers of the endoplasmic reticulum resident proteome: Secreted ER Calcium Modulated Protein (SERCaMP) assay (AID 1508630); conditions: SH-SY5Y GLuc-SERCaMP (Gaussia luciferase released on ER calcium loss) secretion, thapsigargin, luminescence; activity change, negative = inhibition: at 38.4 µM (top of the series) unless noted; also: % is scaled to controls: 0 for no effect and ±100 for the full control effect
# Summary of the method: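 The SH-SY5Y reporter protocol was run at 3 concentrations up to 38.3 uM (primary) or 11 concentrations (follow-up): 16 h compound, 100 nM thapsigargin for 4 h, then extracellular luciferase luminescence.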
# [5] = Primary qHTS for inhibitors of nuclear receptor binding SET domain protein 2 (NSD2) in an RCH-ACV wild type WT cells (2C) (AID 1645877); conditions: activity change, negative = cell killing: at 44.9 µM (top of the series) unless noted; also: nearly all actives have a fitted effect of over 70% in size; also: potency is read from the fitted curve at half-maximal effect; as to activity change, negative = cell killing: % is scaled to controls: 0 for no effect and ±100 for the full control effect
# HEK293 = test: Cytotoxic Profiling of Annotated Libraries Using Quantitative High-Throughput Screening (AID 1296008); conditions: Five cell lines viability, CellTiter-Glo ATP luminescence, 48-72 h; max response: stronger effect = lower value; also: nearly all actives have a fitted effect of over 60% in size; also: potency is read from the fitted curve at half-maximal effect; as to max response: % is scaled to controls: 0 for no effect and ±100 for the full control effect
# Summary of the method: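 Compounds were pin-transferred onto cells and incubated 48 or 72 hr at 37 degree Celsius, 95% humidity. CellTiter-Glo was added, plates sat 10 min at room temperature, then ATP-coupled luminescence was imaged as the viability read-out.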
# CAOV3 = test: Primary qHTS to identify gynecologic anti-cancer compounds using libraries of approved drugs and bioactive compounds (AID 1345084); conditions: Gynecologic cancer cell panel viability, ATPlite luminescence, 48 h; activity change, negative = cytotoxicity: at 57.5 µM (top of the series); also: nearly all actives have a fitted effect of over 55% in size; also: potency is read from the fitted curve at half-maximal effect; as to activity change, negative = cytotoxicity: % is scaled to controls: 0 for no effect and ±100 for the full control effect
# Summary of the method: (§1)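 Cell viability after 48 h drug treatment, ATPlite luminescence readout; five doses.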
# SKOV3 = test: as above; conditions: Gynecologic cancer cell panel viability, ATPlite luminescence, 48 h; series mostly up to 57.5 µM
# Summary of the method: as §1
# [6] = P-glycoprotein substrates identified in KB-8-5-11 adenocarcinoma cell line, qHTS therapeutic library screen (AID 1346987); also: potency is read from the fitted curve at half-maximal effect; nearly all actives have a fitted effect of over 65% in size
# Summary of the method: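 Compounds are pinned in dose-response onto KB-8-5-11 cells (500 cells/well, colchicine-free medium) and left 72 h at 37 degree C. CellTiter-Glo luminescence then yields AC50 values.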
# [7] = test system: Zika virus NS2B-NS3 protease (linked construct); test: Primary screen NINDS Rhodamine qHTS for Zika virus inhibitors (AID 1347160); conditions: activity change, negative = inhibition: at 57.1 µM (top of the series) unless noted; also: nearly all actives have a fitted effect of over 55% in size; also: potency is read from the fitted curve at half-maximal effect
# Summary of the method: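 Rhodamine110-peptide cleavage (1.5 µM substrate) by 25 nM linked NS2B-NS3 enzyme at pH 8.0 (Tris, Tween 20), after 15 min RT preincubation with compounds; 15-min fluorescence change normalized to controls and Hill-fitted.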
# [8] = Primary qHTS for inhibitors of nuclear receptor binding SET domain protein 2 (NSD2) in an isogenic RCH-ACV NSD2 p.E1099K mutant (9B) (AID 1645876); also: potency is read from the fitted curve at half-maximal effect; nearly all actives have a fitted effect of over 70% in size
# [9] = Primary redox qHTS assay for identification of artifact compounds. (AID 1845223); conditions: Amplex Red/HRP redox cycling with DTT, fluorescence; redox activity (% of DA3003): at 53.8 µM (top of the series); also: potency is read from the fitted curve at half-maximal effect
# Summary of the method: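 Redox-cycling detection via DTT (250 uM final) oxidation coupled to Amplex Red (25 uM)/HRP (250 mU/mL) in HBSS. 15 min preincubation plus 30 min after DTT, room temperature. Ex/Em 525/598 nm; 4-parameter Hill fit against DMSO and 10 uM DA3003.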
# [10] = NCATS anti-infectives library activity on the primary C. elegans qHTS viability assay (AID 1745855; calls by dose curve; also: potency is read from the fitted curve at half-maximal effect)
# Summary of the method: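 GFP read-out by 488 nm laser cytometry at day 0, 3 and 7, gated on object perimeter, area and peak intensity, scored viability of PE254-GFP-FLuc worms exposed to compound in S medium with bacterial capsules at 21 °C.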
# [11] = test system: Nanoluciferase (engineered Oplophorus gracilirostris luciferase); test: Primary Nanoluciferase (NLuc) qHTS assay for identification of artifact compounds. (AID 1845222);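 also: NLuc secreted into diluted conditioned medium of S16 cells; 0% = DMSO and -100% = no enzyme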
# Summary of the method: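 Concentration-response data were obtained by luminescence after 5 min with Nano-Glo substrate at 1:100. The enzyme was diluted S16 NLuc-expressing cell medium, preincubated with compound for 15 min at RT. Curves were fitted with a 4-parameter Hill model.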
# [12] = biological target: Cytochrome P450 2C9 (Homo sapiens) (UniProt P11712); test: Cytochrome P450 family 2 subfamily C member 9 (CYP2C9) small molecule antagonists: luciferase biochemical (cell-free) qHTS assay (AID 1645842; active = well fitted curve in the direction sought with a large enough effect in the repeat runs; inconclusive = weak or mixed curves; inactive = no such curve, though single readings can be large; an effect the other way counts as inactive or inconclusive)
# Summary of the method: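 P450-Glo CYP2C9 system: proluciferin substrate with enzyme in mix containing 0.4% BSA, 10 min at room temperature, then NADPH regeneration solution added and incubated 1 h at 37C. Detection reagent stopped reaction; luminescence read after 20 min as RLU.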
# [13] = Primary fluorescence-based thiol-reactive (MSTI) qHTS assay for identification of artifact compounds. (AID 1845221); also: potency is read from the fitted curve at half-maximal effect;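 also: thiol-reactive compounds lower the probe fluorescence signal; nearly all actives have a fitted effect of over 65% in size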
# Summary of the method: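 Probe: MSTI 4 uM, PBS pH 7.4, 2% DMSO. Incubation 1 h, RT, light-protected. Readout fluorescence 525/598 nm.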
# Tov-21-G = test: Primary qHTS to identify gynecologic anti-cancer compounds using libraries of approved drugs and bioactive compounds (AID 1345084); conditions: Gynecologic cancer cell panel viability, ATPlite luminescence, 48 h; activity change, negative = cytotoxicity: at 57.5 µM (top of the series) unless noted; also: nearly all actives have a fitted effect of over 55% in size; also: potency is read from the fitted curve at half-maximal effect
# Summary of the method: as §1
# Tags tell the direction and shape of the fitted curve.
# Chain of UniProt P11712 (P11712 whole entry, looked up): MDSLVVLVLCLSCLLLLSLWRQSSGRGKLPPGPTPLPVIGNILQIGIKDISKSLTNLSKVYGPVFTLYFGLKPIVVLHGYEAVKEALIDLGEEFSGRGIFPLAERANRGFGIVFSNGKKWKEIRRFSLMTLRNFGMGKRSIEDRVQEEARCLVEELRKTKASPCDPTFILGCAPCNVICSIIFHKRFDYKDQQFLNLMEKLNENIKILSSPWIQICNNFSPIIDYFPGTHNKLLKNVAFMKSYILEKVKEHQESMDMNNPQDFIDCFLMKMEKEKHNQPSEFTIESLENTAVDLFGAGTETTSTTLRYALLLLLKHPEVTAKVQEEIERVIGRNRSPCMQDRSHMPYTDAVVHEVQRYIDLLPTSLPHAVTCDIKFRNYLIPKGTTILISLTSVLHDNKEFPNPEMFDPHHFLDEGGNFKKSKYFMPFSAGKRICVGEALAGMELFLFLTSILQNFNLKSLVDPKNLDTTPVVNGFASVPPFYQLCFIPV
compound,measurement,setting,value
Nc1ccc([N+](=O)[O-])c(C(F)(F)F)c1,Potency,[1],inactive
same,Potency,[2],"inconclusive: 38.6 µM [cytotoxic, single point]"
same,Potency,[3],inactive
same,Potency,[4],inactive
same,Potency,[5],inactive
same,max response,HEK293,inactive: 4.93%
same,Potency,CAOV3,inactive
same,Potency,SKOV3,"inconclusive: 1.12 µM [rising, partial curve, poor fit]"
C=C[C@]1(C)C[C@@H](OC(=O)CSC2C[C@H]3CC[C@@H](C2)N3C)[C@]2(C)[C@H](C)CC[C@]3(CCC(=O)[C@H]32)[C@@H](C)[C@@H]1O (stereo not given in full),Potency,[6],"inconclusive: 8.2 µM [inhibitor, partial curve, poor fit]"
same,Potency,[7],inactive
same,Potency,[8],"inconclusive: 20.5 µM [inhibitor, partial curve]"
same,Potency,[5],"inconclusive: 6.49 µM [inhibitor, partial curve]"
same,Potency,[9],"inconclusive: 10.6 µM [activator, partial curve]"
same,Potency,HEK293,active: 1.46 µM
same,Potency,CAOV3,inactive
same,Potency,SKOV3,inactive
CCCN1CCC=C(c2cc(-c3ccc(C)cc3)no2)C1,Potency,[10],active: 6.48 µM
same,Potency,[11],inactive
same,Potency,HEK293,"inconclusive: 29.1 µM [inhibitor, single point]"
same,Potency,CAOV3,inactive
same,Potency,SKOV3,inactive
COc1ccc(N2CCOCC2)c2sc(NC(=O)N3CCC(C)(O)CC3)nc12,Potency,[7],"inconclusive: 39.8 µM [inhibitor, single point]"
same,Potency,[12],"inconclusive: 26.8 µM [inhibitor, single point]"
same,Potency,[13],"inconclusive: 4.74 µM [inhibitor, partial curve]"
same,max response,HEK293,inactive: -6.66%
same,Potency,CAOV3,"inconclusive: 20 µM [rising, single point]"
same,Potency,Tov-21-G,inactive
COc1ccc(C2(N(C)C(=O)c3ccc(NC(=O)c4ccco4)cc3)CCOCC2)cc1,Potency,[13],inactive
same,Potency,HEK293,"inconclusive: 29.1 µM [inhibitor, single point]"
same,Potency,CAOV3,inactive
same,Potency,SKOV3,"inconclusive: 39.8 µM [cytotoxic, single point]"
Cn1c(=O)cc(N2CCCC(N)C2)n(Cc2ccccc2C#N)c1=O (stereo not given),Potency,[5],inactive
same,outcome,HEK293,inactive
same,Potency,CAOV3,inactive
same,Potency,Tov-21-G,"inconclusive: 39.8 µM [rising, single point]"
